The campaign covered roughly 200,000 compounds. About 4,500 (2.2%) were called active. The inconclusive results got no clear call from the source; some entries with a clear call stand among them for comparison. Calls follow the shape of the dose curve; as a rule, active = well fitted inhibition curve with a large enough effect; inconclusive = small, poorly fitted or top-dose-only effect, or effect the other way; inactive = flat fitted curve, though single readings scatter. Potencies of inconclusive entries are doubtful fits and often do not repeat.
Each molecule was assayed against Cruzipain (Trypanosoma cruzi) (UniProt P25779) (assay: qHTS Assay for Promiscuous and Specific Inhibitors of Cruzain (without detergent)). Conditions: purified cruzain, Z-FR-AMC fluorescence, no detergent.
Sequence of UniProt P25779 (P25779 whole entry, looked up): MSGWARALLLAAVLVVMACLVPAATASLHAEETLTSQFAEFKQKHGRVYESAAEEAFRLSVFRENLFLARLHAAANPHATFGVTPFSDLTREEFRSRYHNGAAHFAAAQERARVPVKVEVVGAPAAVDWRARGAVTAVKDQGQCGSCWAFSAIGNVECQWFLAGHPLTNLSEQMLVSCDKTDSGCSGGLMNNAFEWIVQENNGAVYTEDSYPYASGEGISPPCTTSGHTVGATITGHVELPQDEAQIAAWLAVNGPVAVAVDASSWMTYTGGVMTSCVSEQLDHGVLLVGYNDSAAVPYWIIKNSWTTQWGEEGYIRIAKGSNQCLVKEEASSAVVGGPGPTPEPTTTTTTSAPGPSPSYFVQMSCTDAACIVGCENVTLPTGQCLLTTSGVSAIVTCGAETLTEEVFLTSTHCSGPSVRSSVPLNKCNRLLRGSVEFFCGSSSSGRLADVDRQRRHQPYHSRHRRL
In short: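 Purified cruzain at 1.5 nM, pre-incubated 15 min with compound at room temperature in 100 mM sodium acetate pH 5.5, 5 mM DTT, 0.00005% Triton X-100. Reaction started with 2 uM Z-FR-AMC; AMC fluorescence increase over 60 s gives rate.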
Also: nearly all actives have a fitted effect of over 40% in size.
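For max response, negative = inhibition in this document: plate controls were enzyme without inhibitor for no effect and buffer without enzyme for full effect.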
Potency is read from the fitted curve at half-maximal effect; tags tell the direction and shape of the fitted curve.

**Q.** How did the Potency turn out when `C=CCSc1nc(-c2ccc3c(c2)OCO3)cc(C(F)(F)F)c1C#N` was run?
**A.** The Potency was inconclusive: 39.8 µM [inhibitor, single point].

**Q.** Which Potency does the source give for `Cc1c(Cc2ccc3c(c2)OCO3)sc(NC(=O)c2ccccc2)c1C(N)=O` here?
**A.** The Potency was active: 25.1 µM.

**Q.** For `CCCOc1ccc(C(=O)Nc2ccc(-c3cc4ccccc4oc3=O)c(C)c2)cc1`, which Potency is on record?
**A.** The Potency was inconclusive: 39.8 µM [inhibitor, single point].

**Q.** For `COC(=O)CSc1nnc(CNc2ccc(Cl)cc2)n1Cc1ccccc1`, which Potency is on record?
**A.** The Potency was inconclusive: 39.8 µM [activator, single point].

**Q.** For `COc1ccc(-c2cc(C(C)=O)c(C)n2CCC(=O)Nc2ccc(C)c(Cl)c2)cc1`, which max response, negative = inhibition is on record?
**A.** Its max response, negative = inhibition is inactive: 5.19%.

**Q.** For `COc1ccc(NC(=O)CCn2c(-c3ccc(F)cc3)cc(C(C)=O)c2C)c(OC)c1`, which Potency is on record?
**A.** The Potency was inconclusive: 39.8 µM [activator, single point].

**Q.** For `CCCNc1ncnc2c1c(-c1ccccc1)cn2-c1ccc(OCC)cc1`, which Potency is on record?
**A.** Its Potency is inconclusive: 20 µM [activator, single point].

**Q.** How did the Potency turn out when `O=C(NCC(=O)N(CCc1ccccc1)C(C(=O)NC1CCCCC1)c1ccncc1)c1ccco1` (stereo not drawn) was run?
**A.** Its Potency is inconclusive: 25.1 µM [activator, single point].

**Q.** For `CCc1cccc(C)c1NC(=O)c1cc(S(=O)(=O)N2CCCCCC2)cn1C`, which max response, negative = inhibition is on record?
**A.** Its max response, negative = inhibition is inactive: -4.52%.

**Q.** How did the max response, negative = inhibition turn out when `COc1ccc(OC)c(S(=O)(=O)N(C)CC(=O)Nc2ccccc2OC)c1` was run?
**A.** Its max response, negative = inhibition is inactive: -1.41%.

**Q.** For `COc1ccc(NC(C)C(=O)N/N=C/c2ccccc2OCc2ccc(Br)cc2)cc1` (stereo not drawn), which Potency is on record?
**A.** The Potency was inconclusive: 39.8 µM [inhibitor, single point].

**Q.** Which max response, negative = inhibition does the source give for `Cc1ccc(Cl)cc1NC(=O)c1cc(CN2CCCC2)on1` here?
**A.** Its max response, negative = inhibition is inactive: -0.991%.

**Q.** How did the max response, negative = inhibition turn out when `CCCCCC#CC[C@@H](O)/C=C/C=C/C=C\[C@@H](O)CCCC(=O)O` was run?
**A.** The max response, negative = inhibition was inactive: -4.63%.

**Q.** How did the Potency turn out when `COc1ccc(CCNC(=O)CCc2cn(Cc3ccc(F)cc3)c3ccccc23)cc1OC` was run?
**A.** The Potency was inconclusive: 12.6 µM [activator, partial curve].

**Q.** `Cc1ccc(Cl)cc1N1CCN(C(=O)c2nn(C)c3c2CS(=O)(=O)c2ccccc2-3)CC1` was tested. Which max response, negative = inhibition did it give?
**A.** Its max response, negative = inhibition is inactive: -14.3%.

**Q.** For `COc1ccc(N=c2oc3cc(O)ccc3cc2C(=O)NCC2CCCO2)cc1` (stereo not drawn), which max response, negative = inhibition is on record?
**A.** Its max response, negative = inhibition is inactive: -20%.

**Q.** How did the Potency turn out when `O=C(CC(c1ccc(F)cc1)c1ccco1)N1CCCC1` (stereo not drawn) was run?
**A.** The Potency was inconclusive: 39.8 µM [activator, single point].

**Q.** With `N#Cc1ccc(NC(=O)Nc2ccc(Cl)cc2)cc1` as the molecule, how does the Potency read?
**A.** Its Potency is active: 10 µM.

**Q.** With `Cc1nc(Nc2ccccc2)c2nc(-c3ccccc3)n(CCCN3CCCCC3C)c2n1` (stereo not drawn) as the molecule, how does the max response, negative = inhibition read?
**A.** The max response, negative = inhibition was inactive: -5.73%.

**Q.** `CC(C)CC(NC(=O)C1CCCCC1)C(=O)Nc1cccc(C(F)(F)F)c1` (stereo not drawn) was tested. Which max response, negative = inhibition did it give?
**A.** Its max response, negative = inhibition is inactive: -9.85%.

**Q.** With `Cc1nc(SCc2nc3ccccc3[nH]2)c2oc3ccccc3c2n1` as the molecule, how does the Potency read?
**A.** Its Potency is active: 15.8 µM.

**Q.** Which max response, negative = inhibition does the source give for `CN1CCN(c2ccc3nc(-c4ccc5nc(-c6ccc(O)cc6)[nH]c5c4)[nH]c3c2)CC1` here?
**A.** The max response, negative = inhibition was inactive: -1.91%.

**Q.** For `COC(=O)c1sccc1S(=O)(=O)N1CCN(c2ccc(Cl)cc2)CC1`, which max response, negative = inhibition is on record?
**A.** The max response, negative = inhibition was inactive: 12%.

**Q.** `Cc1nc(N2CCc3ccccc3C2)[nH]c(=O)c1CCC(C)C` was tested. Which Potency did it give?
**A.** Its Potency is inconclusive: 31.6 µM [inhibitor, single point].

**Q.** Which Potency does the source give for `CCOC(=O)c1ccccc1NC(=O)c1cc2c(s1)-c1ccccc1SC2` here?
**A.** Its Potency is active: 7.94 µM.

**Q.** With `Cc1nc(N2CCOCC2)c2nc(-c3ccccc3)n(CC(C)(C)CN(C)C)c2n1` as the molecule, how does the max response, negative = inhibition read?
**A.** Its max response, negative = inhibition is inactive: -0.404%.

**Q.** Which Potency does the source give for `COc1ccccc1N1CCN(S(=O)(=O)CCNC(=O)COc2ccccc2F)CC1` here?
**A.** Its Potency is inconclusive: 39.8 µM [activator, single point].

**Q.** Which Potency does the source give for `Cc1ccc(-c2nc(CS(=O)CC(=O)N3CCN(c4ccc(F)cc4)CC3)c(C)o2)cc1` (stereo not drawn) here?
**A.** The Potency was inconclusive: 39.8 µM [activator, single point].

**Q.** With `CCCCN(C)C(=O)c1ccc2c(c1)N(Cc1ccc(F)cc1)C(=O)c1ccccc1S2(=O)=O` as the molecule, how does the Potency read?
**A.** The Potency was inconclusive: 0.126 µM [activator, full curve, poor fit].

**Q.** `CN1CCc2cc3c(cc2C(=O)Cc2ccc4c(c2C1)OCO4)OCO3` was tested. Which max response, negative = inhibition did it give?
**A.** The max response, negative = inhibition was inactive: 0.446%.

**Q.** Which max response, negative = inhibition does the source give for `CCOC(=O)c1ccccc1NC(=O)/C=C/c1cc(OC)c(OC)c(OC)c1` here?
**A.** The max response, negative = inhibition was inconclusive: 175% [activator].

**Q.** How did the Potency turn out when `C=CCOc1nc2c(c(=O)n(C)c(=O)n2C)n1Cc1ccc(Cl)cc1Cl` was run?
**A.** The Potency was inconclusive: 39.8 µM [activator, single point].

**Q.** With `O=C(CS(=O)(=O)c1cccc2nsnc12)Nc1ccc(F)cc1F` as the molecule, how does the max response, negative = inhibition read?
**A.** The max response, negative = inhibition was inactive: -2.38%.

**Q.** How did the Potency turn out when `Cc1ccc(-n2c(=O)c3oc4ccccc4c3n(CC(=O)Nc3ccc(F)c(Cl)c3)c2=O)cc1C` was run?
**A.** Its Potency is active: 10 µM.

**Q.** For `Cc1ccc(C(=O)CSc2nnc(-c3c[nH]c4ccccc34)o2)cc1`, which Potency is on record?
**A.** The Potency was inconclusive: 39.8 µM [inhibitor, single point].

**Q.** How did the Potency turn out when `Cc1ccc(S(=O)(=O)N2CCCOC2CNC(=O)C(=O)NCCc2c[nH]c3ccccc23)cc1` (stereo not drawn) was run?
**A.** The Potency was inconclusive: 31.6 µM [inhibitor, single point].

**Q.** For `CCCCCOc1ccc(N2C(=O)C3C4C=CC(C3C2=O)N(C)C4=O)cc1` (stereo not drawn), which Potency is on record?
**A.** The Potency was inconclusive: 25.1 µM [activator, partial curve].

**Q.** For `CCn1c2ccccc2c2cc(NC(=O)CSc3nnc(C4CC4)n3Cc3ccco3)ccc21`, which Potency is on record?
**A.** Its Potency is inconclusive: 2 µM [inhibitor, partial curve].

**Q.** With `COc1cc(C2C(C#N)=C(N)N(c3sc4c(c3C#N)CCCC4)C3=C2C(=O)CC(C)(C)C3)cc(OC)c1OC` (stereo not drawn) as the molecule, how does the Potency read?
**A.** Its Potency is inconclusive: 25.1 µM [activator, single point].

**Q.** `COc1ccc(OCC(O)Cn2cnc(-c3ccc(Br)cc3)c2)cc1` (stereo not drawn) was tested. Which Potency did it give?
**A.** Its Potency is inconclusive: 39.8 µM [activator, single point].

**Q.** For `O=C1CN(C(=O)CSc2nc3ccccc3n2CCc2ccccc2)c2ccccc2N1`, which max response, negative = inhibition is on record?
**A.** The max response, negative = inhibition was inactive: -22.3%.

**Q.** For `COC(=O)c1ccc(-c2sc3nc(N4CCOCC4)c4c(c3c2N)CCCC4)o1`, which Potency is on record?
**A.** The Potency was inconclusive: 39.8 µM [activator, single point].

**Q.** With `CC(C)c1ccc(S(=O)(=O)c2n[nH]n3c2nc(=O)c2ccccc23)cc1` as the molecule, how does the Potency read?
**A.** Its Potency is inconclusive: 15.8 µM [inhibitor, partial curve, poor fit].
